In paper PMC6919601, “Identification of Plasmodium dipeptidyl aminopeptidase allosteric inhibitors by high throughput screening” (PLoS ONE, 2019):
Out of some 110,000 compounds screened, about 230 (0.21%) showed an effect of 50% or more. This is one part of the list.

molecular target: DPAP1 (Plasmodium falciparum, UniProt Q8IIJ9); assay: primary screen, percent inhibition; read by cleavage of a fluorogenic dipeptide substrate; higher = more effect of the substance; set-up: species or system P. falciparum D10 trophozoite lysates; single well
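Further: 30 min substrate incubation versus DMSO and 10 µM JCP410 controls.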

Chain of DPAP1 (Q8IIJ9 whole entry, looked up): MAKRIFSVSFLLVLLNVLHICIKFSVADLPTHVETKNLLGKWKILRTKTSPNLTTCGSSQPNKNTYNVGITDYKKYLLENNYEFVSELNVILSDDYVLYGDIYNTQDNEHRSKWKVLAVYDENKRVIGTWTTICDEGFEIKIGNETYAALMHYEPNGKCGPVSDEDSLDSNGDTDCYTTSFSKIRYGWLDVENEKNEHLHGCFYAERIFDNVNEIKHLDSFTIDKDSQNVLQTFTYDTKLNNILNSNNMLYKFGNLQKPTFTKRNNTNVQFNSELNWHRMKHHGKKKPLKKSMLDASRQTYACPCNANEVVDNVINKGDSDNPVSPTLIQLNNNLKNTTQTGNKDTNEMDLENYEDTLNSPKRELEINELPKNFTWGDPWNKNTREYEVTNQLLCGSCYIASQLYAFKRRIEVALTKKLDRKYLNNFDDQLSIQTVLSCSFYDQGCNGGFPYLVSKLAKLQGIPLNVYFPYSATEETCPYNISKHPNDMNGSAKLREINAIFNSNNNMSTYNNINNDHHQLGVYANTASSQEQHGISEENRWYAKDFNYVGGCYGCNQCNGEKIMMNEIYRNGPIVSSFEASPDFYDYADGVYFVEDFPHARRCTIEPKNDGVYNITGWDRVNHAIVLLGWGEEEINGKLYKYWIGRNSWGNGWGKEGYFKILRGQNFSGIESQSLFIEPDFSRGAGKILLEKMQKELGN

Row | Compound | % Inhibition @ 10 uM
1 | COc1ccc(CSc2nnc3nc(C)cc(C)n23)cc1 | -3.4%
2 | CCCN1Cc2cccc(C(=O)NCc3ccc4c(c3)OCO4)c2C1=O | -6.06%
3 | CC1CN(C(=O)c2ccccc2Oc2ccccc2)CC(C)O1 (centres unmarked) | 6.12%
4 | COC(=O)c1nonc1-n1cccc1C=O | 3.04%
5 | COc1ccccc1NC(=O)C1=C(C)N=C2CCCC(O)=C2C1c1ccccc1OC(C)C (centres unmarked) | 2.51%
6 | CCCCOc1ccc(S(=O)(=O)N2CCC(C)CC2)cc1 | 0.162%
7 | Cc1ccc(OCC(O)Cn2c(CO)nc3ccccc32)cc1 (centres unmarked) | -3.41%
8 | CCCN(CCO)CC(c1ccccc1)c1ccccc1 | 6.68%
9 | O=C(c1ccc(S(=O)(=O)N2CCCCCC2)cc1)N1CCN(c2ccccc2F)CC1 | 2.49%
10 | CC(C)Oc1ccc(C2N3CC4(C)CN2CC(C)(C3)C4)cc1 (centres unmarked) | -0.0735%
11 | CC(C)C[C@H](NC(=O)OCc1ccccc1)C(=O)N[C@H]1CCCN(C(=O)OC(C)(C)C)C1O (some centres unmarked) | -1.82%
12 | CC(C)/N=C(\NS(=O)(=O)c1ccc(Cl)cc1)c1ccccc1 | -0.0267%
13 | O=C(CN1C(=O)c2ccccc2C1=O)Nc1ccccc1Cl | -6.82%
14 | CCCN1CCN(CCCNC(=O)CN2N=C(c3ccc(C)cc3)CCC2=O)CC1 | 0.514%
15 | CCOC(=O)c1c(C)[nH]c(C)c1S(=O)(=O)NCC(=O)Nc1nc2ccc(Cl)cc2s1 | -4.93%
16 | CC(C)C[C@H](NC(=O)OCc1ccccc1)C(=O)N[C@H](C#N)CCCCNC(=O)OC(C)(C)C | -6.46%
17 | CCOC(=O)c1[nH]nc2c1C(=O)N(CC)C2=O | 4.96%
18 | CN1C(=O)NC(=O)/C(=C\c2cc(Br)c(OCC(=O)O)c(Br)c2)C1=O | -2.26%
19 | COc1ccc(CN2CCN(Cc3ccccc3F)CC2)cc1 | -7.76%
20 | CC1(C)CC2=Nc3ccccc3N(C(=O)C3CC3)C(c3cccs3)C2=C(O)C1 (centres unmarked) | 0.851%
21 | O=S(=O)(NCC1CCN(Cc2ccccc2F)CC1)c1ccc(-c2ccc(O)nn2)s1 | -0.658%
22 | CCCCOc1ccc(C2=N/C(=C/c3ccccc3F)C(=O)O2)cc1 | -6.06%
23 | Cc1c(C(=O)N2CCCC2)oc2c1-c1nn(Cc3ccccc3Cl)cc1CC2 | 4.85%
24 | CN(CC(=O)NC1CCCCC1)S(=O)(=O)c1ccc2[nH]c(-c3ccccc3)nc2c1 | 3.84%
25 | Cc1ccc2cnn(CC(=O)NC(C)CCc3ccccc3)c2c1 (centres unmarked) | -2.88%

Row | Compound | % Inhibition @ 10 uM
26 | Cc1nn2c(N)cc(-c3ccccc3)nc2c1-c1ccccc1 | 6.81%
27 | CCN(CC)CCNC(=O)C(c1ccccc1)N1Cc2ccccc2C1=O (centres unmarked) | 2.71%
28 | CC(=O)C1=C(C)OC(N)=C(C#N)C1c1cccc(Cl)c1Cl (centres unmarked) | 1.96%
29 | O=C(NCCO)c1cc(C(=O)NCCO)cc(C(=O)NCCO)c1 | -5.36%
30 | CC1(C)CC2=Nc3ccccc3NC(c3ccccc3C(=O)O)C2=C(O)C1 (centres unmarked) | -3.5%
31 | COc1ccc(C2C(C(=O)c3ccc(Br)cc3)=C(O)C(=O)N2c2cccnc2)cc1OC (centres unmarked) | -11.4%
32 | Cn1c(=O)[nH]c(=O)c2c1nc(NCCCO)n2CC(O)COc1ccc(Cl)cc1 (centres unmarked) | -0.053%
33 | CCN(CC)C(=O)c1ccc(N/C=C2/C(=O)NC(=O)N(c3cccc(C)c3)C2=O)cc1 | 0.121%
34 | COC(=O)C1=CN(Cc2ccc(Cl)cc2)C=C(C(=O)OC)C1c1cc(Cl)c(O)c(OC)c1 | -1.48%
35 | CCOC(=O)c1c(C)n(CCO)c2ccc(O)cc12 | 3.05%
36 | Cn1cc(Br)c(C(=O)NCc2cc3ccccc3[nH]2)n1 | -7.9%
37 | O=C(NC1CCN(Cc2ccccc2)CC1)c1cccc(Cl)c1 | 3.05%
38 | Cc1ccc(CCNCc2ccc(C(=O)O)s2)cc1 | -7.93%
39 | O=C1OC(c2ccccc2F)=N/C1=C\C(Br)=C\c1ccccc1 | -0.265%
40 | CCn1c2ccccc2c2cc(CNCCSc3nnnn3C)ccc21 | -5.33%
41 | CCCN1C/C(=C\c2cccc(OC)c2OC)C2=NN(C(C)=O)C(c3cccc(OC)c3OC)C2C1 (centres unmarked) | 2.94%
42 | O=C1NC(=S)S/C1=C/c1cc(Br)c(Br)o1 | 2.4%
43 | COc1cc(C2C3=C(O)CC(C)(C)CC3=NC(C)=C2C(=O)Nc2ccccc2OC)ccc1O (centres unmarked) | -2.68%
44 | Cc1cc(=O)n2nc(N3CCCC(C(=O)N4CCCCCC4)C3)sc2n1 (centres unmarked) | -7.54%
45 | CCOC(=O)c1cnn(Cc2cccc(Cl)c2)c1C | 1.76%
46 | O=C(O)c1ccc(C(=O)O)c(-c2ccccc2)c1 | -1.77%
47 | CSc1ccc(-c2nnn(CC(=O)Nc3nn(-c4ccccc4)nc3C(N)=O)n2)cc1 | 2.7%
48 | CCn1cc(C(=O)NCc2ccco2)c2cc(OC)c(OC)cc2c1=O | -0.972%
49 | Cc1nnc(SCc2c(F)cccc2Cl)c2cc3occc3n12 | -14.1%
50 | O=C(CCCn1c2ccccc2c2cnnc(O)c21)NC1CCCCCC1 | -3.79%

Row | Compound | % Inhibition @ 10 uM
51 | COc1ccc(-n2c3c(c(=O)[nH]c2=O)C(C(F)(F)F)(C(F)(F)F)NC(C)=N3)cc1 | -4.97%
52 | Cc1cc(SCc2ccc(Cl)c(Cl)c2)n2nc(C)nc2n1 | -2.19%
53 | CC1=C(C(=O)Nc2nccs2)C2(CCCCCC2)OC1=O | 3.96%
54 | COC(=O)c1cc2sc(Cl)cc2n1Cc1ccc(C)cc1 | -9.48%
55 | Cn1c(=O)c2c(-c3ccc(C(C)(C)C)cc3)n(-c3cccc(C#N)c3)cc2n(C)c1=O | -3.12%
56 | CCCC(=O)NCCc1nc2ccccc2[nH]1 | -0.0235%
57 | COc1ccccc1CNS(=O)(=O)c1cccc2cccnc12 | -9.81%
58 | CC(=O)c1ccc2oc(C(=O)O)cc(=O)c2c1 | -0.636%
59 | O=C(CCc1ccccc1)Nc1ccc(S(=O)(=O)Nc2ccc(F)cc2)cc1 | -0.173%
60 | O=C(CNS(=O)(=O)c1cccs1)NCCc1ccc(Cl)cc1 | -5.51%
61 | CCOc1ccc(C2NC(S)=NC3=C2CCc2ccccc23)cc1 (centres unmarked) | 1.97%
62 | COC(=O)C1=C(C)N=C2SCCC(=O)N2C1c1ccc(C(C)C)cc1 (centres unmarked) | -4.93%
63 | Cc1ccc(CNC(=O)CCc2c(C)nc3cc(-c4ccccc4)nn3c2C)cc1 | 1.26%
64 | O=C(NCC1CCCO1)c1ccc(N2C(=O)C3C4CCC(C4)C3C2=O)cc1 (centres unmarked) | 4.25%
65 | COc1ccc2ccccc2c1C1C(C(C)=O)=C(C)N=c2s/c(=C/c3ccco3)c(=O)n21 (centres unmarked) | -0.736%
66 | Cc1cc2c(n1-c1ccc(C(N)=O)cc1)CC(C)(C)CC2=O | 3.65%
67 | COc1cccc(-c2nc3cc(Cl)cnc3[nH]2)c1O | -3.63%
68 | COc1cc(CN(C)C2CCN(C)CC2)cc(OC)c1 | 2.26%
69 | CCOC(=O)c1cnn2c(C(F)(F)F)cc(-c3ccc(OC)cc3)nc12 | 7.63%
70 | CC(C)(C)C(=O)Nc1c(Cl)sc2nccc(=O)n12 | 4.41%
71 | O=c1oc2ccc3ccccc3c2cc1-c1nc(-c2ccc3c(c2)OCO3)no1 | 0.0147%
72 | CC(C)(C)c1[nH]nc2c1C(c1cccc(Cl)c1)C(C#N)=C(N)O2 (centres unmarked) | 2.7%
73 | Cc1ccc2c(CNCC(C)c3ccccc3)c(C(=O)O)n(Cc3ccccc3F)c2c1 (centres unmarked) | 0.889%
74 | CC1CN(S(=O)(=O)c2ccc(C(=O)N3CCC(C(N)=O)(N4CCCCC4)CC3)cc2)CC(C)O1 (centres unmarked) | 3.77%
75 | CC(=O)c1cnc2cc(-c3ccc(C)cc3)nn2c1C | 3.15%

Row | Compound | % Inhibition @ 10 uM
76 | CCOc1ccccc1C(=O)Nc1ccc(CC#N)cc1 | -1.52%
77 | Cc1nn(C)c(C)c1CN(C)C(=O)c1cc2n(n1)C(C(F)(F)F)CC(c1cccs1)N2 (centres unmarked) | -3.76%
78 | COC(=O)C1=C(C)N(Cc2ccco2)C(=O)/C1=C\c1ccc(C(=O)O)cc1 | 3.72%
79 | CCN(CC)c1ccc(NS(=O)(=O)c2ccc(OC)cc2)cc1 | 0.389%
80 | Cc1ccccc1-c1ccc(C(=O)N[C@@H](CC(C)C)C(=O)NCC#N)cc1 | -3.04%
81 | CCC(=O)Nc1c2c(nc3c1CCC3)CCCC2 | 5.59%
82 | COc1ccc(-c2csc(NC(=O)c3cccc4ccccc34)c2C(=O)O)cc1 | 6.52%
83 | O=C(Cc1ccccc1)NCc1nnc(S)n1-c1cccc(C(F)(F)F)c1 | 6.51%
84 | COc1cccc(S(=O)(=O)NCc2ccc(C(=O)N3CCN(c4ccccc4F)CC3)cc2)c1 | 0.214%
85 | COc1ccc(OC)c(C2=NOC(C(=O)N3CCCC3)C2)c1 (centres unmarked) | -0.431%
86 | COc1ccc(C(=N)NOC(=O)CCCc2ccccc2)cc1OC | -1.47%
87 | CC1=NC(=S)NC(c2ccc(Cl)cc2)/C1=C(/O)OC(C)C (centres unmarked) | -6.6%
88 | Cc1cc(C)nc(SCC(O)COC(C)C)n1 (centres unmarked) | 1.87%
89 | C=CCN1C(=O)/C(=C\c2cc(C)n(-c3ccccc3)c2C)C(C(=O)OC)=C1C | -4.93%
90 | COc1cc2nc(S)nc(NCCCN3CCCCC3C)c2cc1OC (centres unmarked) | -2.83%
91 | CCCn1c2ccccc2c2cnnc(O)c21 | -3.31%
92 | COc1ccc(CN(C)C2CCCCC2)cc1C | -1.86%
93 | c1ccc(CC2CCN(Cc3ccc4c(c3)OCO4)CC2)cc1 | 0.605%
94 | CCOc1ccc(CNC(=O)c2ccc(CS(=O)c3ccc(Cl)cc3)o2)cc1 (centres unmarked) | 2.83%
95 | CCOc1ccc(C(=O)NCc2ccccc2)cc1S(=O)(=O)N1CCCCCC1 | 2.22%
96 | Cc1nn2c(=O)cc(COc3ccc(/C=C4/C(=N)N5C=CSC5=NC4=O)cc3)nc2s1 | -3.95%
97 | COc1ccc(C2C(C(=O)N3CCOCC3)c3cc(OC)c(OC)cc3C(=O)N2C)cc1OC (centres unmarked) | 2.06%
98 | COCc1cc(C)nc2sc3c(c12)NC(c1ccc(F)cc1)NC3=O (centres unmarked) | -0.0619%
